Reference: ChEMBL document CHEMBL1201862, “PubChem BioAssay data set” (2004)

test system: NCI-H322M; assay: DTP human tumour cell line panel, 48 h

Question: For `CCOC(=O)c1c(O)cc(=O)[nH]c1N1CCOCC1`, which GI50 is on record?
Answer: Its GI50 is inactive: > 100 µM.

Question: How did the GI50 turn out when `CN(C)CCn1cnc2ncccc2c1=O` was run?
Answer: Its GI50 is inactive: > 100 µM.

Question: For `N#Cc1c(C#N)c(SSc2c(C#N)c(C#N)c(N)n2-c2cccc3ccccc23)n(-c2cccc3ccccc23)c1N`, which GI50 is on record?
Answer: Its GI50 is inactive: > 41.3 µM.

Question: Which GI50 does the source give for `Cc1nc(N)c(N2CCN(CN)CC2)c(O)n1` here?
Answer: The GI50 was inactive: > 100 µM.

Question: Which GI50 does the source give for `COc1ccc(CN(Cc2ccc(OC)cc2)C(=O)CC2(O)C=CCC2)cc1` (configuration not stated) here?
Answer: The GI50 was inactive: > 100 µM.

Question: Which GI50 does the source give for `CN1CCc2c(sc3ncn(Nc4ccc(F)cc4)c(=N)c23)C1` here?
Answer: The GI50 was inactive: > 100 µM.

Question: With `C/C=C/C=C\C1OC(O)([C@H](CC)C(=O)NC/C=C/C=C(\C)[C@H](OC)C(C)C2OC(\C=C/C=C/C=C(\C)C(=O)c3c(O)ccn(C)c3=O)[C@H](O)[C@@H]2O)C(O)C(O)C1(C)C` (some centres not stated) as the compound, how does the GI50 read?
Answer: The GI50 was inactive: > 100 µM.

Question: How did the GI50 turn out when `Cn1c(=O)c2[nH]c(/N=N\n3ccc4ccccc43)nc2n(C)c1=O` was run?
Answer: Its GI50 is inactive: > 100 µM.

Question: With `O=S(=O)(O)SC/C=C\CSS(=O)(=O)O` as the compound, how does the GI50 read?
Answer: The GI50 was inactive: > 100 µM.

Question: For `Cc1cc(Cl)cc2c1NC(=O)C2(O)CC(=O)c1ccc(F)cc1` (configuration not stated), which GI50 is on record?
Answer: The GI50 was inactive: > 100 µM.

Question: `CCOC(=O)C(NC(=O)c1cccc(Cl)c1)(N1CCN(c2cc3c(cc2F)c(=O)c(C(=O)O)cn3CC)CC1)C(F)(F)F` (configuration not stated) was tested. Which GI50 did it give?
Answer: Its GI50 is inactive: 34.1 µM.

Question: How did the GI50 turn out when `Cc1ccccc1-c1nc2c(C(=O)NCCN(C)C)cccc2[nH]1` was run?
Answer: The GI50 was inactive: 34 µM.

Question: Which GI50 does the source give for `COCn1c2ccc(OC(C)=O)cc2c2c(=O)oc(N(C)C)nc21` here?
Answer: Its GI50 is inactive: > 100 µM.

Question: How did the GI50 turn out when `Cc1[nH]n(-c2nc(O)c(-c3ccccc3)c(=O)[nH]2)c(=O)c1CCO` was run?
Answer: Its GI50 is inactive: > 100 µM.

Question: Which GI50 does the source give for `CCOC(=O)CCC(NC(=O)c1ccc(NCc2ccc3nc(-c4ccccc4)c(Cl)nc3c2)cc1)C(=O)OCC` (configuration not stated) here?
Answer: Its GI50 is inactive: 53.1 µM.

Question: Which GI50 does the source give for `CC(NNC(=O)c1cc[n+]([BH2-]C#N)cc1)c1ccccc1F` (configuration not stated) here?
Answer: The GI50 was inactive: 49.9 µM.

Question: How did the GI50 turn out when `C[C@]12C[C@@H](c3ccccc3)Nc3ccccc3N1C(c1ccccc1)=NO2` was run?
Answer: Its GI50 is inactive: 53.7 µM.

Question: Which GI50 does the source give for `Cc1ccc(NC(=O)C(=O)CC(=O)c2c(C)[n+]([O-])c3ccccc3[n+]2[O-])cc1C` here?
Answer: Its GI50 is inactive: > 100 µM.

Question: `COc1cc2cc3c4c(cc(OC)c(OC)c4c2cc1OC)CCN3C(=O)OCCN1CCNCC1` was tested. Which GI50 did it give?
Answer: Its GI50 is inactive: 18.2 µM.

Question: With `O=C1C2Nc3ccccc3SC2C(=O)N1c1ccccc1C(F)(F)F` (configuration not stated) as the compound, how does the GI50 read?
Answer: The GI50 was inactive: 42.2 µM.

Question: `CCCCc1ccc(Nc2ncc3ncn(COCCO)c3n2)cc1` was tested. Which GI50 did it give?
Answer: The GI50 was inactive: 52.4 µM.

Question: `CN(C)CCn1nc(N)c2nc3cc(C(F)(F)F)ccc3nc21` was tested. Which GI50 did it give?
Answer: The GI50 was inactive: > 100 µM.

Question: For `CC(=O)Oc1c(-c2ccccc2)[nH]c2cc([N+](=O)[O-])c(/C(Cl)=C/c3ccccc3)cc12`, which GI50 is on record?
Answer: The GI50 was inactive: 10.6 µM.

Question: With `Cn1c(=O)c2c(nc3n2CCCC(=O)N3CCCCl)n(C)c1=O` as the compound, how does the GI50 read?
Answer: Its GI50 is inactive: > 100 µM.

Question: With `CC1=NN(C(=O)Cc2ccccc2)C(=O)/C1=C\c1ccc([N+](=O)[O-])cc1` as the compound, how does the GI50 read?
Answer: The GI50 was inactive: > 100 µM.

Question: Which GI50 does the source give for `CCOC(=O)c1c[nH]c2c(ccc3ncccc32)c1=O` here?
Answer: The GI50 was inactive: > 100 µM.

Question: For `N#Cc1c(N)c2c(c(-c3ccccc3)c1-c1ccccc1)C(=O)N(NC(=O)c1ccccc1)C2=O`, which GI50 is on record?
Answer: The GI50 was inactive: 98.2 µM.

Question: How did the GI50 turn out when `CCCn1c(SC)nc(COC(=O)NC)c1COC(=O)NC` was run?
Answer: Its GI50 is inactive: > 100 µM.

Question: Which GI50 does the source give for `COC(=O)c1sc(C(=O)OC)c2c1CSC2` here?
Answer: Its GI50 is inactive: > 100 µM.

Question: For `O=S(=O)(N=S(c1ccccc1)c1ccccc1)c1ccccc1`, which GI50 is on record?
Answer: Its GI50 is inactive: > 100 µM.

Question: `OCC1OC(c2cccc3cc(O)c(O)cc23)CC1O` (configuration not stated) was tested. Which GI50 did it give?
Answer: Its GI50 is inactive: > 100 µM.

Question: With `c1ccc(CN2CCC(CNc3ncnc4ccccc34)C2)cc1` (configuration not stated) as the compound, how does the GI50 read?
Answer: Its GI50 is inactive: 95.5 µM.

Question: How did the GI50 turn out when `N/N=C(\N)SCc1ccc(N=C=S)cc1` was run?
Answer: The GI50 was inactive: > 100 µM.

Question: How did the GI50 turn out when `Cn1c(=O)c2/c(n(C)c1=O)=N\C=c1\c(=O)n(C)c(=O)n(C)\c1=N\C=2` was run?
Answer: Its GI50 is inactive: > 100 µM.

Question: How did the GI50 turn out when `CC(C)N(C(=O)C12C3C4C1C1C4(C#N)C3C12C(=O)O)C(C)C` (configuration not stated) was run?
Answer: The GI50 was inactive: > 100 µM.

Question: For `Cc1ccc(Nc2nc(C)c(C(=O)CC(=O)C(=O)Nc3c(C)cccc3C(C)(C)C)s2)cc1`, which GI50 is on record?
Answer: The GI50 was inactive: > 100 µM.

Question: `CN(C)c1ccc(C(=C2C=CC(=[N+](C)C)C=C2)c2ccc(N(C)C)cc2)cc1` [GENTIAN VIOLET] was tested. Which GI50 did it give?
Answer: The GI50 was active: 0.387 µM.

Question: How did the GI50 turn out when `CCOC(=O)/C(C(=O)Nc1cccc(Cl)c1)=C(/N)N1CCOCC1` was run?
Answer: The GI50 was inactive: > 100 µM.

Question: `Cc1ccc(C(=O)c2[nH]c(Nc3cc(C)ccn3)c(C(=S)Nc3ccccc3)c2N)cc1` was tested. Which GI50 did it give?
Answer: The GI50 was inactive: > 100 µM.

Question: How did the GI50 turn out when `CCCCNc1nc2ccccc2c2c1ncn2CC(C)C` was run?
Answer: Its GI50 is inactive: > 100 µM.

Question: Which GI50 does the source give for `CO/C(=N\N=C\c1ccc(Cl)cc1)c1ccncc1` here?
Answer: The GI50 was inactive: > 100 µM.

Question: For `CCCCC/C=C\C=C\CCCCCCCCC(=O)OC`, which GI50 is on record?
Answer: Its GI50 is inactive: > 100 µM.

Question: With `CCCCNC1=C(C(=O)OCC)/C(=N/NC(=O)c2ccccc2O)CO1` as the compound, how does the GI50 read?
Answer: The GI50 was inactive: 19.5 µM.

Question: How did the GI50 turn out when `OCCCCCCCCCCCOc1ccc(C2OCC3(CC=CCC3)CO2)cc1` (configuration not stated) was run?
Answer: Its GI50 is inactive: 17.5 µM.

Question: For `Cc1cc2nc3c(C#N)c4c(c(Nc5ccc(Cl)cc5)n3c2cc1C)CCC4`, which GI50 is on record?
Answer: Its GI50 is inactive: 64.4 µM.

Question: Which GI50 does the source give for `C1COCCSC2=C(SCCO1)SC(=C1SC3=C(SCCOCCOCCS3)S1)S2` here?
Answer: Its GI50 is inactive: > 100 µM.

Question: For `CC(C)(C)c1cc(/C=C(\C#N)C(=O)NCCO)cc(C(C)(C)C)c1O`, which GI50 is on record?
Answer: Its GI50 is inactive: 24.7 µM.

Question: How did the GI50 turn out when `CCOC(OCC)[C@H](N)[C@@H](O)[C@@H](O)[C@H]1COC(C)(C)O1` was run?
Answer: The GI50 was inactive: > 100 µM.

Question: With `C/C(=C\C(=N\NC(=N)N)c1ccccc1)c1ccccc1` as the compound, how does the GI50 read?
Answer: Its GI50 is active: 0.321 µM.

Question: For `COc1cc2c3c(c1OC)-c1cc4c(cc1CC3(C#N)N(C(=O)c1ccccc1)CC2)OCO4` (configuration not stated), which GI50 is on record?
Answer: The GI50 was inactive: 35.9 µM.

Question: How did the GI50 turn out when `CC(C)(C)c1ccc(O)c(C(O)c2ccccn2)c1` (configuration not stated) was run?
Answer: Its GI50 is inactive: > 100 µM.

Question: How did the GI50 turn out when `CC(=O)/C(=C\c1ccco1)C(=O)Nc1ccccc1` was run?
Answer: The GI50 was inactive: > 100 µM.

Question: How did the GI50 turn out when `O=c1/c(=C/c2cccc([N+](=O)[O-])c2)sc2nc3ccccc3n12` was run?
Answer: Its GI50 is inactive: 46.9 µM.

Question: `O=[N+]([O-])c1cc2oc(CSc3ccccc3)nc2cc1Cl` was tested. Which GI50 did it give?
Answer: Its GI50 is inactive: 36.9 µM.

Question: With `COc1cc(S(=O)(=O)Nc2nc(-c3ccc(N4C(=O)/C(=C/c5ccccc5[N+](=O)[O-])N=C4c4ccccc4)cc3)cs2)ccc1Cl` as the compound, how does the GI50 read?
Answer: Its GI50 is inactive: 95.1 µM.

Question: With `CC1CCCN1CCCOC(=O)c1ccc(OC2C=CCCC2)cc1` (configuration not stated) as the compound, how does the GI50 read?
Answer: Its GI50 is inactive: 50.1 µM.

Question: Which GI50 does the source give for `Nc1nc(Cl)c(N)c(NCC2(CO)CC2)n1` here?
Answer: The GI50 was inactive: > 100 µM.

Question: With `CC(C)C(NCc1c2ccccc2nc2ccccc12)C(=O)O` (configuration not stated) as the compound, how does the GI50 read?
Answer: The GI50 was inactive: > 100 µM.

Question: `O=C1CSC(c2ccccc2O)N1c1ccc(Oc2ccc(Cl)cc2)c(Cl)c1` (configuration not stated) was tested. Which GI50 did it give?
Answer: Its GI50 is inactive: 20.9 µM.

Question: Which GI50 does the source give for `O=C1CCSc2c(cnc3ccccc23)N1` here?
Answer: Its GI50 is inactive: > 100 µM.

Question: How did the GI50 turn out when `COc1ccc(N(C)S(=O)(=O)c2ccccc2)cc1` was run?
Answer: The GI50 was inactive: > 100 µM.

Question: How did the GI50 turn out when `O=c1c2cc([N+](=O)[O-])ccc2nc2n1CCCCC2` was run?
Answer: The GI50 was inactive: > 100 µM.

Question: Which GI50 does the source give for `CN(C)CC(O)CNC(=O)Nc1ccccc1` (configuration not stated) here?
Answer: Its GI50 is inactive: > 100 µM.

Question: `Cc1ccc2nc3cc(C)c(=O)cc-3sc2c1` was tested. Which GI50 did it give?
Answer: The GI50 was inactive: > 100 µM.

Question: `CCn1c2ccccc2c2ccc3c(c21)C(=O)C=CC3=O` was tested. Which GI50 did it give?
Answer: The GI50 was inactive: 24.8 µM.

Question: For `O=C1c2ccccc2-c2c1c(-c1ccc(F)cc1)nc1ccc3ccccc3c21`, which GI50 is on record?
Answer: Its GI50 is inactive: > 100 µM.

Question: How did the GI50 turn out when `CC1(C#N)CC(C)(C)C(/C=C2/CC(C)(C)C(/C=C3/OC(=N)CC3(C)C)=N2)=N1` (configuration not stated) was run?
Answer: The GI50 was inactive: 40.6 µM.

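Dose response: 5 concentrations. Exposure: 48 h. Format: 96-well plates. Endpoint: linear interpolation; highest concentration if not reached. GI50: concentration for 50% inhibition of growth.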 The source made the active and inactive calls. No stated cut-off is given here; in the data, active = GI50 up to about 1.1 µM and inactive = higher.
